# Among all 150,000 compounds or so, about 540 (0.36%) showed an effect of 50% or more. The list shows a part of the results.
# Test system: Plasmodium falciparum
# Test: Primary screen in NF54 nanoGlo assay, in single point, at 2uM, 72h; a lower Z score goes with more inhibition
# Assay type: functional, Erythrocyte
# Details: timepoint 72 hour
Structure (SMILES),% Inhibition,Z score
CCn1nc(C)c(C(=O)Oc2cc3cnccc3cc2OC)c1Cl,-8%,1.3
O=C([C@@H]1C[C@@H]2OCC[C@@H]2N1)N1CCN(Cc2ccc(Br)cc2)CC1,1%,-0.14
O=C(CN1CCC(O)CC1)NC1CCCCCC1,5%,-0.73
O=C(Cn1nc(-c2ccc3c(c2)OCCO3)ccc1=O)N(c1ccccc1)c1ccccc1,-25%,2.2
C=CCOC[C@@H](O)CN(CCOC)Cc1c(-c2ccccc2)noc1N(C)C1CCCCC1,-5%,0.65
CNC(=O)CN(C)Cc1c(C)cc(OC)c(C)c1C,-10%,0.92
CCOC(=O)c1ccc2nc(C(F)(F)F)nc(N3CCN(c4cccc(Cl)c4)CC3)c2c1,9%,-1.19
COc1ccc(N(Cc2ccco2)C(=O)c2ccc(Br)o2)cc1,5%,-0.61
CCN(c1ccccc1)S(=O)(=O)NC(=O)CCc1ccoc1,-4%,0.4
Cc1ccc(Cc2nc(N3CCN(S(C)(=O)=O)CC3)c3c(C)nn(-c4ccccc4)c3n2)cc1,-21%,2.49
CN(Cc1cn2ccccc2c1C#N)[C@H]1CCS(=O)(=O)C1,-8%,1.2
Cc1ccc2c(c1)CN(C(=O)CCCCc1ccccc1)C[C@H](C)O2,3%,-0.49
Cc1onc(C(=O)N2CCC[C@H](c3nc(C4CCOCC4)no3)C2)c1Cn1cc(Cl)cn1,-8%,0.98
FC(F)(F)c1cc(NC2CCOCC2)ncn1,-13%,1.43
COC(=O)C1C2CCC(C2)C1NC(=O)Nc1cc(C)n(C)n1 (stereo not drawn),3%,-0.42
COc1ccc(CCNC(=O)c2cnc(N3CCN(c4ccccc4)CC3)nc2OC)cc1OC,2%,-0.33
N#CCCN(Cc1ccco1)CC1CCCC1,2%,-0.32
Cn1cc(S(=O)(=O)Nc2ccc3c(c2)CCC(=O)N3)cn1,-6%,1.11
C=CCNC(=O)c1ccc(NCc2ccncc2)nc1,-3%,0.39
CN(C)C(=O)C[C@H](O)c1cc2n(n1)CCN(Cc1cccc(C#N)c1)C2,7%,-1.14
Nc1c(Cl)cc(C(=O)NC2CCCC3OCCC23)cc1Cl (stereo not drawn),0%,-0.05

Structure (SMILES),% Inhibition,Z score
COCCNC(=O)c1cn(-c2cc(-c3nc(C)no3)ccn2)cn1,-9%,1.18
CC(CO)(CO)NC(=O)c1cnn2c1OCCC2,-11%,1.64
Cc1nc2ccc(-c3ccccc3)c(O)c2n1C,-4%,0.52
CC(C)(C)OC(=O)N1CCN2C(=O)c3ccccc3OCC[C@@H]3CC[C@@H](NC(=O)C4CCOCC4)[C@@H](CNC(=O)[C@@H]2C1)O3,11%,-1.22
CCOCCN1CC(OC(=O)c2ccc3c(c2)OCCCO3)C1,-1%,0.1
COC(=O)C1CN(CC(C)(O)CN(C)C(=O)OC(C)(C)C)CCO1 (stereo not drawn),-12%,1.3
N#Cc1cccc(CN2C[C@@H]3C[C@H](C2)c2ccc(NS(=O)(=O)c4cccc(F)c4)c(=O)n2C3)c1,5%,-0.63
COc1ccccc1CCC(=O)N1CCC(Cc2nncn2C)CC1,-2%,0.46
O=C(NCc1ccc(-c2ccc3c(c2)CCO3)cc1)c1ccc(O)nc1,-9%,0.95
CC(C)CS(=O)(=O)N1CCC(N[C@@H](C)c2ccc3c(c2)OCCCO3)CC1,4%,-0.59
CCN(Cc1ccc2nsnc2c1)[C@H]1CCS(=O)(=O)C1,-17%,2.4
O=c1c2ccccc2ncn1CCc1ncnn1Cc1ccc2c(c1)OCO2,-8%,1.49
COc1cc(OC)cc(C(C(=O)O)N2C3CCC2CC2(CC2)C3)c1 (stereo not drawn),-5%,0.88
Cc1[nH]c2ccccc2c1CCn1nnnc1N(C)C[C@H]1CCOC1,-4%,0.59
COc1ccccc1NC(=O)C1=C(C)Nc2nnnn2[C@H]1c1cccc(F)c1,-4%,0.52
Cc1ccc(CS(=O)(=O)Cc2ccc(C(=O)N3CCCC3)o2)cc1,-13%,2.5
O=C(Nc1nncs1)[C@H]1CCCN(C(=O)c2ccc3c(c2)CCC3)C1,-9%,1.33
O=C1C2CCC(c3ccccc3)CC2C(=O)N1c1cccc(C(F)(F)F)c1 (stereo not drawn),8%,-1.03
O=S(=O)(c1ccc(F)cc1F)N1CCCN(c2nc3cccnc3s2)CC1,-24%,2.46
COCCC(C)(C)C(=O)Nc1cccc(-n2c(C)c[nH]c2=O)c1,-5%,0.78
NC(=O)[C@H]1CCN(C(=O)c2cc(-c3ccccc3)cs2)C1,-5%,0.78

Structure (SMILES),% Inhibition,Z score
COCCOc1ccc(N)cc1Cl,-10%,1.04
O=C(CO)N1CCN(c2cnc3cc(Cl)c(Cl)cc3n2)CC1,5%,-0.62
CNC(=O)c1cccnc1N1C[C@@H]2COc3ccccc3C[C@]2(CO)C1,-6%,0.79
Cc1cc(Cl)ccc1NC(=O)c1c(N2CCCC2=O)c2cc(F)ccc2n1C,6%,-1.02
Cc1nc(CC(=O)N2CCc3[nH]cnc3[C@H]2c2cccnc2)cs1,-1%,0.13
O=C(CCc1ccccc1)Nn1cnc2ccccc2c1=O,-9%,1.15
COCC1(CNC(=O)c2cc(O)cc(O)n2)CCC1,8%,-1.09
COc1c(F)cc([C@@H]2C[C@H](NC(C)=O)C[C@H](C(C)C)O2)cc1Cl,1%,-0.24
Cc1cccc(-n2c(=O)n(Cc3ccccc3)c(=O)c3c2ncn3Cc2ccccc2)c1,1%,-0.24
COc1ccc(CCNc2nc(-c3ccc(F)cc3)c3c(N)n(-c4ccccc4Cl)nc3n2)cc1,-31%,3.62
C[C@@H](CCc1cccn1C)Nc1ccccn1,-11%,1.42
CC(C)(CNC(=O)Nc1nc(CS(C)(=O)=O)no1)C1CCCC1,-8%,1.06
Cc1cc(Br)cnc1NCC(=O)NCC(F)(F)F,-13%,2.36
O=C(Nc1ccc(N2CCCC2=O)cc1)[C@@H]1CC=CCC1,-7%,0.62
CC(NC(=O)C(C)N1CCc2nn[nH]c2C1)c1ccc(F)cc1 (stereo not drawn),-6%,0.93
CCc1cc(CNC(=O)Cn2ncc(N3CCOCC3)cc2=O)on1,4%,-0.48
CNS(=O)(=O)CCCn1nc(C(F)(F)F)ccc1=O,-14%,1.59
Clc1cnn(Cc2cc(-c3ccccc3)on2)c1,1%,-0.08
CCOc1cc2c3c(c1)[C@@H](C)CC(C)(C)N3C(=O)C2=O,14%,-2.08
CCc1ccc2c(c1)[C@H]1OCCC[C@H]1C(c1ccc(OC)c(C)c1)N2 (stereo partly drawn),-9%,1.48
CCNC(=O)NC(=O)[C@H](C)N(C)Cc1cccs1,-12%,1.72

Structure (SMILES),% Inhibition,Z score
CC(C)(C)CN1CC[C@H](c2nnc(-c3ccccc3)o2)C1,-9%,1.68
CC(C)c1nnsc1CN(CCO)[C@H]1CS(=O)(=O)C[C@@H]1O,-9%,1.75
c1cc2c(cc1-c1nc([C@H]3CCOC3)no1)CCO2,5%,-0.9
O=C(CN1C(=O)NC2(CCCCCCC2)C1=O)c1ccc(Oc2ccccc2)cc1,-10%,1.12
NC(=O)Cc1nc(-c2cncc(O)n2)n(CC(F)(F)F)n1,7%,-1.26
Cn1cc(C2CCN(C3Cc4ccccc4C3O)C2)cn1 (stereo not drawn),2%,-0.36
Cc1occc1C(=O)NCC1(c2ccncc2)CCCCC1,-3%,0.29
CC(C)C(=O)N1CC(c2noc([C@@H]3CCCN3CC3CC3)n2)C1,-5%,0.63
Cc1cc(NC(=O)c2n[nH]c(=O)c3ccccc23)no1,-15%,1.35
COCCC1(c2noc(C3CCOCC3)n2)CCN(Cc2c(C)noc2C)CC1,-8%,1.03
Cc1cc(C(=O)N(C)[C@H]2CCCN(C(=O)CCc3cnn(C)c3)C2)n(C)n1,15%,-1.89
O[C@@H](CNCC=Cc1ccco1)c1cc(Cl)c2c(c1)OCCO2,-29%,4.15
O=S(=O)(c1ccc2c(c1)OCCO2)N1C2CCC1CC(=C1CC1)C2,12%,-1.56
CC(C(=O)NCC(O)CN(C)C(=O)C(C)C1CC1)C1CC1 (stereo not drawn),-10%,1.89
CCOc1ncccc1C(=O)N1C[C@@H]2CC[C@H]1CN(S(=O)(=O)N(C)C)C2,-12%,1.5
CC(C)c1nc(CS(=O)(=O)C[C@H](O)c2c(F)cccc2F)cs1,1%,-0.19
CNC(=O)[C@@H](C)CN(C)c1nccc(OC)n1,-7%,1.39
COCCN(CC(=O)N1N=C(c2cccn2C)C[C@H]1c1ccc(Cl)cc1)C(=O)c1ccccc1Cl,-18%,1.61
Cc1cc(NC(=O)CN2CC(=O)NC[C@H]2c2ccccc2)n(C)n1,-2%,0.27
CC1CC(C)C(C(=O)N(C)Cc2ncon2)O1 (stereo not drawn),-7%,0.67
O=C1NCCN1CC1CCN(C(=O)c2ccc3cccnn23)CC1,-17%,2.26

# Reference: ChEMBL document CHEMBL4888484, “Replenishing the malaria drug discovery pipeline: Screening and hit evaluation of the MMV Hit Generation Library 1 (HGL1) against asexual blood stage Plasmodium falciparum ,using a nano luciferase reporter read-out” (2022)
